# Measurements taken from the supplement of paper PMC12217912.
# The other results are listed elsewhere or left out. Sequences were assembled here from the parent chain. Values near 0.05 are background.
# B1: TEV protease; numbered along this chain (parent)
# chain: MGESLFKGPRDYNPISSSICHLTNESDGHTTSLYGIGFGPFIITNKHLFRRNNGTLVVQSLHGVFKVKDTTTLQQHLVDGRDMIIIRMPKDFPPFPQKLKFREPQREERICLVTTNFQTKSMSSMVSDTSCTFPSGDGIFWKHWIQTKDGQCGSPLVSTRDGFIVGIHSASNFTNTNNYFTSVPKNFMELLTNQEAQQWVSGWRLNADSVLWGGHKVFMVKPEEPFQPVKEATQL
# Variants of: B1
# Assay: raw area under fraction-flipped curve 0-4 h after induction (AUC4h, not background-subtracted), DNA-recorder readout of cleavage of the substrate (dimensionless); higher = more cleavage of the substrate by the protease variant
# Settings: temperature: 34 °C; time window: 0-4 h after rhamnose induction
# Procedure: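 In vivo DNA recorder in E. coli TOP10(DE3) ΔrhaA at 34 °C. Each TEVp single-site mutant (parent TEVp 0) is paired with a single-site variant of the 7-mer TEVs (canonical ENLYFQ|S). The substrate sits between flexible linkers in a Bxb1-sfGFP-TEVs-SsrA fusion, so cleavage stabilises Bxb1 and speeds flipping of a recombination array, read by NGS. The value is the raw area under the fraction-flipped curve over 0-4 h after rhamnose induction (AUC4h), with ≥20 reads per time point. It is not background-subtracted; inactive controls average about 0.047.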
# 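Also: Bxb1 expression induced with 0.2% (w/v) L-rhamnose at OD600 near 0.5, cultures sampled hourly, flipped fraction per protease–substrate barcode pair counted by paired-end Illumina sequencing.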
Variant,area with substrate FNLYFQS,area with substrate HNLYFQS,area with substrate INLYFQS,area with substrate LNLYFQS,area with substrate TNLYFQS,area with substrate WNLYFQS,area with substrate YNLYFQS,area with substrate GNLYFQS,area with substrate MNLYFQS,area with substrate SNLYFQS
S201H,0.0672,0.0643,0.0521,0.0604,0.067,0.0625,0.0736,,,
S201Q,0.041,,,,0.0773,0.0564,,0.101,,
N206C,0.0519,0.0622,0.056,0.0671,0.0676,0.0514,0.0649,0.054,0.0715,0.0497
N206R,0.0482,,0.0721,0.105,0.0462,0.0574,0.0755,0.0636,0.0564,0.0556
A207R,0.0606,,,,,,,,,0.0509
S209G,0.0412,0.0645,0.077,,,0.0524,0.0549,,0.0805,0.0577
S209K,0.12,0.0564,,0.0594,0.0497,,,,,
S209N,0.0719,,,0.051,,0.0677,,,,0.0666
S209W,0.0705,0.062,,,,,0.075,,,
V210P,0.0563,0.0465,0.0468,,0.0665,0.0564,0.0623,,,
G214F,0.0453,,,,,,,,,
H215F,0.0699,,,0.0667,0.0478,0.0801,0.0767,,,
H215L,0.0592,0.0613,0.0659,0.0506,0.0642,0.0571,,0.0672,,
V217E,0.0621,0.0549,0.0549,,,0.0621,0.05,0.0416,,0.0716
V217L,0.0552,0.0731,,0.0693,0.0591,0.0437,,,,
F218V,0.0649,0.0491,0.0653,0.0795,,0.0552,0.0019,,0.0632,
V220S,0.0637,0.061,,0.0732,0.0661,0.0677,0.056,0.0736,0.0583,0.0868
Q227D,0.0643,0.0649,0.0632,,0.0607,0.0514,,0.0666,,0.0771
P228W,0.057,0.0673,,,0.0618,0.0604,,,,
V229D,0.065,0.0825,,0.0697,,0.157,,0.0781,,
T233W,0.0579,,,,,,0.057,,0.0662,0.0497
L235P,0.0876,,0.0755,,0.0913,0.0461,,,0.0663,0.0653
L235T,0.0634,0.0478,,0.0488,0.047,0.0577,0.085,,,

Variant,area with substrate FNLYFQS,area with substrate HNLYFQS,area with substrate INLYFQS,area with substrate LNLYFQS,area with substrate TNLYFQS,area with substrate WNLYFQS,area with substrate YNLYFQS,area with substrate GNLYFQS,area with substrate MNLYFQS,area with substrate SNLYFQS
G2F,,,,,0.0519,0.0586,0.0829,0.0767,0.0835,
S4A,,0.0652,,0.0673,0.0518,0.0539,0.0231,0.079,,
L5T,,,0.0596,,0.0705,0.0566,,0.0749,0.0688,
T31I,,0.0785,0.0738,0.073,0.0659,0.0576,0.0686,0.0728,0.0917,
G35D,,,0.0427,,,0.0314,,0.0295,,
R51H,,,,,,,,0.0916,,
R51S,,,,,,0.0634,,0.059,,0.0793
N53L,,0.057,,0.0615,0.0569,0.047,,0.0793,,
V57E,,0.0694,0.0592,,,,0.0413,0.0654,0.0728,0.0764
V58D,,0.0449,0.0476,0.059,0.0461,,0.0416,0.0327,0.0518,0.0468
K66Y,,0.112,0.0705,,,0.0596,,0.0742,,0.0713
Q75M,,0.0525,0.0654,,0.0395,0.0645,0.0624,0.064,0.0637,0.0656
H76T,,,0.0484,0.0657,,0.0518,,0.0438,,0.0639
L77R,,0.0653,0.0478,0.0924,0.0579,0.0525,0.062,0.0668,0.0554,0.0586
V78N,,0.0525,,,0.0488,0.0558,0.0552,0.0535,0.0793,0.0564
R81P,,,,0.0719,,,,0.111,,
D82V,,0.0611,,,,0.0618,,0.0521,,0.0593
M83R,,,,0.0517,0.0632,0.048,,0.0535,,0.0509
I84V,,0.0662,0.0741,,,0.0475,,0.0429,,0.0546
I85H,,0.058,,0.0215,,,0.0491,0.0698,,
R87V,,0.0565,,,0.0749,,,0.0572,,0.0514
M88L,,0.0707,0.0631,,0.0754,0.0606,0.0698,0.0662,0.0749,

# Same assay, conditions: temperature: 34 °C; time window: 0-4 h after rhamnose induction
Variant,area with substrate VNLYFQS,area with substrate PNLYFQS,area with substrate RNLYFQS,area with substrate KNLYFQS,area with substrate NNLYFQS,area with substrate QNLYFQS
N206C,0.0676,,,,,
N206R,0.0545,0.0641,0.0534,,,
A207R,,,0.0512,,,
S209G,,0.0648,,0.0639,0.0658,
S209K,,0.0633,,,,
S209N,,,,0.0612,,0.0628
V210P,,0.0399,0.0643,,,
G214F,,,,0.0677,,
H215F,0.0784,,,0.0615,0.0477,
H215L,,,,,0.0612,
V217E,,0.0641,,,0.0557,
V217L,0.0608,,,,,
F218V,,0.0363,,0.06,,
V220S,0.0688,0.0467,,,0.0658,
Q227D,,,0.0609,0.0859,0.0658,
P228W,,0.0735,,0.0733,0.0614,
V229D,,0.0687,,,,
T233W,,0.0909,,0.0608,0.0705,0.0398
L235P,,0.0756,,,,
L235T,0.0729,0.0591,,0.0712,,

Variant,area with substrate VNLYFQS,area with substrate PNLYFQS,area with substrate RNLYFQS,area with substrate KNLYFQS,area with substrate NNLYFQS,area with substrate QNLYFQS
G2F,0.0577,0.0811,,0.0754,,
S4A,,0.0784,,0.0754,,
L5T,0.0808,0.104,0.0544,0.0567,,
T31I,0.0831,0.0739,,,0.0699,
G35D,,0.0247,,,0.0394,
R51S,,0.0571,,0.0685,,
N53L,,0.0628,,,,
V57E,,0.0517,,0.064,,
V58D,0.0539,,,,,
K66Y,,,,0.0676,0.0706,
Q75M,,,,,0.0692,
H76T,,0.0597,0.0718,,,
L77R,0.0575,0.0547,,,,
V78N,,,,,0.0399,0.0534
D82V,,0.046,0.0548,,,
M83R,,,0.0634,,0.0559,
I84V,0.0686,0.0731,,,0.0646,
I85H,,,,,0.0633,
R87V,,0.0561,,,,
